From the supplement of paper PMC10126150 come the findings set out here.

Sequences with one replicate were seen in a single cluster, so their values are uncertain.
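Further: ATP exposure 15 min at 22 °C before imaging.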

This data set deals with ATP. Nature of the data set: switch fluorescence ratio, 500 uM ATP over buffer (Cy3 cluster intensity, sum of 5 cycles each) (fold (ratio)); higher = stronger signal-on switching upon ATP binding; sequences stand for … in TCGTCGGCAGCGTCAGATGTGTATAAGAGACAGTTTTTTTTTTTTTTTTTTTTTTTTT…TC. The note with it: aptamer strand: ATP DNA aptamer (quencher-CACCTGGGGGAGTATTGCGGAGGAAGG + anchor), 100 nM annealed; ATP concentration: 500 uM; one replicate. The procedure, abridged: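 Clusters with intensities outside 100-1000 RFU were excluded. The remaining Cy3-labelled switching-strand clusters on a modified Illumina MiSeq flow-cell had been annealed to 100 nM quencher-labelled ATP aptamer and imaged in selection buffer, then after 15 min with 500 uM ATP at 22 °C, for five cycles separated by NaOH stripping and re-annealing. The fluorescence ratio, averaged per switch-domain sequence, is each cluster's summed target-cycle Cy3 intensity over its summed buffer-cycle Cy3 intensity.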
For the sequence CTGGACAACT, the switch fluorescence ratio was 1.08.
As for CCTCTTAGTG, the switch fluorescence ratio came out at 1.08.
Turning to TGAGGTTGT, the switch fluorescence ratio stood at 0.997.
As for CAAATCATGG, the figure is 1.02; as for GGGGACAAAG, 0.969; as for TCCAACGGTG, 1.33.
For the sequence GCCTAGCCGT, the switch fluorescence ratio came to 1.01.
As for ATCATTTGCA, the figure is 0.993.
Consider TCAGATTCTT, for which the switch fluorescence ratio came out at 0.985.
As for ACTGGTCCGG, the figure is 1.04.
Consider CTGTAGGGTA, for which the switch fluorescence ratio was determined as 0.998.
As for AGCGTTACTT, the figure is 1.15; as for TCGAGCTGAC, 1.94; as for CACCCCAGCC, 1.31.
Regarding GGGCAATGT, the switch fluorescence ratio was 1.18.
To ACGAAAACAT belongs 1.05; to ACATAATGGT, 1.01; to CCGGGAACTT, 1.02.
As to TGCTTTACAA, the switch fluorescence ratio came to 1.01.
On to ACCCTATGA, for which the switch fluorescence ratio stood at 1.09.
With TAATTGCATG, the switch fluorescence ratio is 1.01.
As for AGGCGCTGGC, the switch fluorescence ratio stood at 0.914.
To TTATAGGAT belongs 0.994; to ATGAAAACAC, 1.03; to GCCCTTGTGC, 0.884.
In the case of AAACGATCAC, the switch fluorescence ratio was 1.48.
Regarding TTGTGACGAG, the switch fluorescence ratio is 1.04.
For the sequence TGCATAAACT, the switch fluorescence ratio was found to be 1.01.
For the sequence TTAGGGTGTC, the switch fluorescence ratio came out at 0.968.
With ATCGGTTAGT, the switch fluorescence ratio came to 1.04.
For the sequence TGATGCTATG, the switch fluorescence ratio worked out at 0.974.
TAAAAGTACC: the switch fluorescence ratio amounted to 1.09.
To GGGTGCTTCG belongs 1.08.
ACGTGGTTAC: the switch fluorescence ratio is 1.26.
In the case of TCAGTGCGGT, the switch fluorescence ratio is 0.968.
For TGGACCGAC, the switch fluorescence ratio was determined as 1.56.
In the case of GCCTCTATTA, the switch fluorescence ratio came out at 0.995.
For CTTTTCAGCT, the switch fluorescence ratio turned out to be 1.
Turning to GCTTTCAGCC, the switch fluorescence ratio was 1.02.
With GACTCGACGT, the switch fluorescence ratio is 1.03.
For CCATCTCCAA, the switch fluorescence ratio worked out at 1.13.
Take GGCGCCTTGT: the switch fluorescence ratio came to 0.988.
As for TTACGATGGC, the figure is 1.29; as for GACACCAAGT, 1.02.
For the sequence GACGTGCGCC, the switch fluorescence ratio is 1.31.
For ATCGTGAAGA, the switch fluorescence ratio was determined as 0.998.
As to TAAATCGGAC, the switch fluorescence ratio came to 1.09.
As for GTGGTTTGG, the figure is 1.
Turning to AGAGGCTCTT, the switch fluorescence ratio is 1.04.
As for TGTTAACCGG, the switch fluorescence ratio was determined as 0.991.
Consider AAAGCCTATC, for which the switch fluorescence ratio was 1.04.
CCTATCTGAA: the switch fluorescence ratio worked out at 1.02.
To TAGTGGTGTT belongs 1.03; to CCTGAGTCCG, 1.79; to GATTTGTAGT, 0.956.
In the case of TAAGGTGTGT, the switch fluorescence ratio was found to be 1.11.
In the case of ACTCATGATA, the switch fluorescence ratio came to 1.03.
To CGGGCACTA belongs 2.86.
As to GGCCGGAAAC, the switch fluorescence ratio is 1.2.
Take TCGTAGGT: the switch fluorescence ratio came to 1.23.
For the sequence AACTTGCGAT, the switch fluorescence ratio came out at 1.05.
To ATTTTCATA belongs 0.999; to TGGAGTTCAA, 1.02; to GAACACAAGT, 1.07.
TGTGAAAAAT: the switch fluorescence ratio was found to be 0.999.
On to GGTATCTATT, for which the switch fluorescence ratio was determined as 0.932.
For the sequence CTCAGCGGTA, the switch fluorescence ratio was found to be 1.45.
In the case of TTCTTAACCG, the switch fluorescence ratio worked out at 1.01.
For the sequence AGACTCATAG, the switch fluorescence ratio came to 1.01.
To ACCGGAAAGC belongs 1.37; to CTTTTTTGTC, 1.03.
With TTTCTATGTT, the switch fluorescence ratio came to 0.996.
To AAACCGATTA belongs 1.06.
In the case of AACATGCTGA, the switch fluorescence ratio is 1.
To ATCGACTCCG belongs 1.1; to TTACGAAATT, 0.975; to ATCTCTATGG, 0.956.
For AAACTGATAC, the switch fluorescence ratio came to 1.19.
AAGGTGCGCT: the switch fluorescence ratio is 0.979.
With GGGCACCGGG, the switch fluorescence ratio is 0.942.
Take GATACTCAAG: the switch fluorescence ratio was 1.01.
For TAGTACTT, the switch fluorescence ratio worked out at 0.989.
As for TCGTTCGGCG, the figure is 0.999.
As for GGCACACGGC, the figure is 1.06; as for ACCAGCAACC, 2.08.
As for TATAGAAGCA, the switch fluorescence ratio was determined as 1.01.
Consider GCTTATGTCA, for which the switch fluorescence ratio worked out at 0.997.
As for TCAACTGGG, the figure is 1.11; as for CATAGAATGA, 0.967; as for ATGAAAAACT, 1.
Consider ACTGCGGGGG, for which the switch fluorescence ratio is 1.01.
For the sequence CCTTTAATTT, the switch fluorescence ratio is 1.07.
As to TCGACTTAAT, the switch fluorescence ratio came out at 1.
As to GTGTTGATCG, the switch fluorescence ratio was 0.982.
Take AATCTCTTTA: the switch fluorescence ratio turned out to be 1.03.
For the sequence TACCTGTATT, the switch fluorescence ratio is 0.963.
As to AGTGGGTAGT, the switch fluorescence ratio came out at 1.02.
With CGTAGCCCGC, the switch fluorescence ratio stood at 1.15.
For the sequence TTCTTCCTGT, the switch fluorescence ratio stood at 0.975.
For TTAATACGGG, the switch fluorescence ratio came out at 1.04.
Take AGGCAGAGGA: the switch fluorescence ratio was 1.02.
As for GCGCAAAAGA, the figure is 1.04; as for CCAAATCGAT, 0.98; as for GTCCTAAATA, 1.04.
Consider AATAACGGCT, for which the switch fluorescence ratio was 1.06.
Turning to TCGCCGTAG, the switch fluorescence ratio was 1.02.
As to AATGTTGAGG, the switch fluorescence ratio was 0.984.
On to TACTTCCGTC, for which the switch fluorescence ratio was found to be 1.16.
On to CAGGGTAAAA, for which the switch fluorescence ratio turned out to be 0.963.
Turning to TTGCAACTCA, the switch fluorescence ratio is 1.03.
To TTAGCCGCTT belongs 1.01; to ATGAGACGCA, 1.09; to GGTGATCCGT, 0.962.
To GTATGATCAC belongs 1.12; to AAAGTGCGGC, 0.971.
CTCTGCCGAC: the switch fluorescence ratio worked out at 2.77.
On to TGTCATTACT, for which the switch fluorescence ratio turned out to be 1.08.
To CCGCTGTTCG belongs 1.77; to GGTGGATTTT, 1.03; to ATAGGAGACG, 0.924.
